Common to all, as to assay: NCI-60 one-dose screen, 48 h (100 = growth as untreated, 0 = no growth, -100 = all killed)
In test [1] the test system is SK-OV-3 ovarian. Conditions: 2.5 mM.
Test [2] deals with IGROV1 ovarian. Conditions: 2.5 mM.
Test [3] has as its system OVCAR-3 ovarian. The settings on record: 2.5 mM; runs of 1991.

Molecules are shown by their SMILES. Where a structure was tested more than once in an assay, its records may differ in their call.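 Method: cells in 96-well plates; compound added at one concentration; 48 h incubation; percent growth measured; values under 10 scored active.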 A number of entries come with more than one value. They are shown here; other results are not. An entry can have further records. The screen tested this drug many times, at the concentration stated with the values; one value stands for one run. Signs of the kind (2×) count equal records among those shown.

Regarding `O=c1[nH]cc(F)c(=O)[nH]1`, the growth result is “inactive: 40.8, 21.4, 16.8, 26.8, 21.5, 28.3, 28.6, 13.6, 46.5, 51.4, 27.4, 44.4, 33.6, 30.9, 23, 15.2, 32.1, 20.6, 28 (2×), 14.7, 36.7, 31.1, 14.8, 34.4, 32.2, 35.6, 17.1, 41.5, 17.4, 22.9, 10.1, 32.7, 27.8% and active: -16.5, -12.2, -29.7, -2.24, -7.44, -18.5, -17.2, -0.332, -0.267%” in test [1] (runs of 1997); “inactive: 18.6, 27.6, 19.8, 31.4, 39.6, 29.6 (2×), 17.7, 42.1 (2×), 25.5, 15.5, 19.2, 19.6, 44.1, 54.5, 33.5, 40.1, 35.9, 43.7, 36.4% and active: -36.7, -3.31, -1.06, -1.96%” in test [1] (runs of 1998); “inactive: 39.4, 32, 13.3, 21.5, 40.5, 12.4% and active: 0.524, 7.11, 4.81, -0.347, 4.51, 7.49, 3.52, 6.08, -49.6, 2.47%” in test [1] (runs of 1999); “active: 9.95, 4.78, 5.22, 3.72%” in test [1] (runs of 2000); “active: 2.88, -14.8, -21.4, -23.4, -26.2, 1.63, -3.64, -56, 0.59, -42.1, 8.14, -17.3, -37.1, -12.5, 4.55, -70.4, -25.4% and inactive: 25.3%, 13.7%” in test [2] (runs of 1991); “active: -5.17, 7.5, 1.56, 5.04, -67.4, -36.2, -12.4, -34, -43.3, 7.67, 7.04, 1.33, 9.6, -71.7, -82.2, -67.2, -39.8, 8.65, -21.7, -8.35, -20.8, 3.12, -6.08, -18.4, 0.492, 9.96, -55.3, 1.64, -79.3, -20.7, -23.4, -62.6, -65.8, -5.75, -12.8, 5.48, -25.8, -27.1, -22.5, -9.73, -9.01, 0.974, -29.8, -56.8, -65.9, -66.3, -10.9, -0.764, -1.69, 2.87, 0.647, 1.09, -33.7 (2×), -30, 7.78, -53.6, -26.4, -40, -13.7, -21.9, -31.9, -33.3, -6, 0.406, -3.7, -25, -34.5, -4.2, 2.46, -53.8, -49.1, -31.1, -36.7, -50.7, -66, -18.2, -35.1, 0.905, -25.3, -5.49, -39.7, 0.831, -33.1, -59.7, -48.6, -47.6, -2.98, -8.33, -20.2, -30.5, -23.6, -37.4, -3.22, -71.1, -20.9, -17.2, 1.03, -19.8, -47.9, -36.3, -5.81, -17.7, -19.9, 9.92, -53.4, -50.4, -23.7, 1.15, -50.5% and inactive: 13.9, 12.8, 29.6, 37, 18.3, 17.7, 10.1, 18%” in test [2] (runs of 1992). Further, the growth result was “active: -27.2, 0.809, -27.7, -14.5, -40.7, -24.9, -23.5, -35.8, -27.4 (2×), -46.4, -1.29, -30.2, 6.41, -5.11, -17.7, -37.7, -40.8, 8.74, 1.27, -5.28, -3.74, -44.6, 4.64, -45.8, -2.03, -21.4, -18.3, -15.1, -46.2, -68.7, -37.4, -71.4, 0.199, 2.53, -20.5, -55.7, 9.32, -12.6, -64.3% and inactive: 20.5, 13.7, 24.4, 98.5, 30.1, 13.6%” in test [2] (runs of 1993); “active: 6.85, -19.6, -20.3, -43.2, -55.6, -13.6, -27.1, -61.1, -32.8, 8.84, -48.9, 3.52, -19.3, 6.11, -3.09, 3.25, 4.75, -20, -19.2, -70.6, -8.96, 5.65, -7.29, -20.4, 5.42, 2.65, 7.23, 3.72, -4.73, 5.19, 0% and inactive: 34.4%, 13.9%, 13.8%” in test [2] (runs of 1994); “active: 4.92, -65.6, -29.3, -35.2, -18.8 (2×), 7.82, -50, 1.31, 4.66, 5.33, -42.2, -6.81, 7.93, 2.05, -44.5, -77, -28.8, -47, -16.6, -4.42, -24.1, -14.5, -6.45, 6.94, -14.9, -26.5, -38.7, -4.29, -34.5, -42.7, -48.5, -21.8, -10.7, -24, -31.5% and inactive: 12.1%, 104%, 11.6%” in test [2] (runs of 1995); “active: -21.3, -33.3 (2×), -19.4, 1.01, 0.816, -49.8, 4.34, -51.1, -13.2, -72.4, 8.54, -1.26, -7.78, -15, -36, 0.678, 5.09, -7.99, 7.36, 3.69, 3.34, 0.0921, 0.439, -11.2, -4.26, 6.81, -44.8, -20, -9.15, -1.72, -21.9, -41.3, 7.07, -9.41, 1.31, 6.85, -9.06, 8.79, 7.23, -8.36, 7.14, 7.81, 6.08, -8.85% and inactive: 12.5, 11.5, 11.7, 17, 10.2, 12.2, 19.6, 12.3, 21.8, 13.8, 13.2%” in test [2] (runs of 1996); “inactive: 14.1, 15.4, 27.8, 32, 18.5, 17.9, 11.2, 19% and active: -16.4, -6.32, 8.06, 5.08, 0, 7.39, 7.87, -25, 9.37, 0.277, -0.236, 9.82, -36.6, 4.03, -15.5, -43.2, 3.66, -41.4, 3.1, -5.5, 3.57, -4.07, 5.14, -0.22, -1.24, -1.98, 1.01, -6.09%” in test [2] (runs of 1997); “inactive: 10.7% (2×), 18.6%, 15.9% and active: 8.12, 7.28 (2×), 8.94, -10.9, -8.05, 3.4, 2.08 (2×), -19, 3.08, 0.853, -31.7, -4.88, 0.741, -25.8%” in test [2] (runs of 1998). The growth entry in test [2] (runs of 1999) is “inactive: 42.2% and active: -34.6, -51.1, -35.5, -33.5, -25.2, -100 (2×), -82.9, 0.0509, 3.18, 0.925, -93.7, -94.6, -63.8, 1.8, -14.5%”; in test [2] (runs of 2000), “active: -2.1, 1.6, -66.1, -72.3%”; in test [3], “active: -21.5, -34.3, -35.3, 2.84, -34.4, 9.41, -7.44, -3.16, -25.7, -11.7, -22.3, 0.81, -13.2, -14.3, -20.1, -22, -26.5, -45.1, -30.4% and inactive: 14.9%”.

The record behind these values is PubChem BioAssay (NCI).
